Laboratory results taken from PubChem BioAssay AID624417 (National Center for Advancing Translational Sciences (NCATS), 2012).
Several values for one entry are separate records, joined by “and”; a condition that tells them apart may be missing. Identical values can stand only once. About 6,400 (1.6%) of roughly 410,000 compounds were called active. The inconclusive results got no clear call from the source; some entries with a clear call stand among them for comparison. The call rests on the fitted dose curve; in most records, active means well fitted inhibition curve with a large enough effect; inconclusive means small, poorly fitted or top-dose-only effect; inactive means no such curve, though single readings can be large or run the other way. Where the call is inconclusive, the potency comes from a doubtful curve fit.

target: Glucagon-like peptide 1 receptor (Homo sapiens) (UniProt P43220); assay: qHTS of GLP-1 Receptor Inverse Agonists (Inhibition Mode); conditions: HEK293 GLP-1R CRE-luciferase, luminescence, 24 h, GLP-1R form is constitutively active; activity change, negative = inhibition: at 38.3 µM (top of the series) unless noted; further: nearly all actives have a fitted effect of over 55% in size
Chain of UniProt P43220 (P43220 whole entry, looked up): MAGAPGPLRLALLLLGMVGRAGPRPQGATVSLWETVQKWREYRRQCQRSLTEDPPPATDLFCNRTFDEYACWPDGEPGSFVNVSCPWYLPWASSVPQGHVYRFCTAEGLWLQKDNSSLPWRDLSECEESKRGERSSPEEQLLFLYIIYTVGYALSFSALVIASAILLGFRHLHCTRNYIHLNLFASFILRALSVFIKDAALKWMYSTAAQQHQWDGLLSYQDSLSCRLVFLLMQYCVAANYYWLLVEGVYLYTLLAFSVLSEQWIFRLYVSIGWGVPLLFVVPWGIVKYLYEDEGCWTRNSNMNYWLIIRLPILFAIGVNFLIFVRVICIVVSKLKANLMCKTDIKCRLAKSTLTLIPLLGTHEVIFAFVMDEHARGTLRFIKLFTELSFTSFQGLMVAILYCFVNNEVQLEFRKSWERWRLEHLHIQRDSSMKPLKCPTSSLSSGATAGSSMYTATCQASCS
Procedure, shortened: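 Stable HEK293 clone (constitutively active GLP-1R + cAMP-response luciferase); 200 cells/uL plated, 12 h pre-culture, compound 24 hr, 37 deg C/5% CO2; detection reagent 12 min RT; luminescence.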
On the % scale 0 is the no-effect control and ±100 the full control effect; potency means the concentration at half of the fitted maximal effect; tags describe the fitted curve by direction and shape.

SMILES	Potency	activity change, negative = inhibition
CCCn1nc([N+](=O)[O-])c(C(C#N)c2nc3ccccc3s2)c(Cl)c1=O (centres undefined)	inconclusive: 11.2 µM [inhibitor, single point]	
Cc1ccc(CNC(=S)Nc2ccc(OC(F)F)cc2C)cc1	inconclusive: 14.1 µM [inhibitor, single point]	
CC(C)C(=O)N1CCN(c2ccc(NC(=O)c3cccs3)cc2Cl)CC1	inconclusive: 3.55 µM [inhibitor, partial curve]	
CN(C)c1cccc(C(=O)Nc2nc3ccccc3[nH]2)c1	active: 3.55 µM	
O=C(NC(=S)Nc1ccc(CN2CCOCC2)cc1)c1cccc(F)c1	inconclusive: 28.2 µM [inhibitor, single point]	
CC(C)c1ccc(NC(=O)COC(=O)C2CC3C=CC2C3)cc1 (centres undefined)	inconclusive: 11.2 µM [inhibitor, partial curve, poor fit]	
O=C(Nc1ccc(C(=O)OCc2cc(=O)n3c4c(sc3n2)CCCC4)cc1)c1ccc(Cl)cc1		inactive: 6.27%
CC(C)c1ccc(NC(=O)Nc2csc3c2CCCC3)cc1	inconclusive: 8.91 µM [inhibitor, single point]	
COc1ccc(NC(=O)c2c(NCc3cccs3)sc3c2CCCC3)cc1	inconclusive: 12.6 µM [inhibitor, partial curve, poor fit]	
CCCCN(C)CC(O)Cn1cc(/C=C/C(=O)c2ccc(C)cc2)c2ccccc21 (centres undefined)	inconclusive: 28.2 µM [inhibitor, single point] and inconclusive: 8.91 µM [inhibitor, partial curve, poor fit]	
CN(CCNC(=O)c1ccc(CS(=O)(=O)c2c(Cl)cccc2Cl)o1)CCc1ccccc1	inconclusive: 10 µM [inhibitor, partial curve, poor fit]	
N#Cc1c(-c2ccccc2)nc(SCC(=O)N2c3ccccc3Sc3ccccc32)[nH]c1=O	inconclusive: 11.2 µM [inhibitor, partial curve, poor fit]	
Cc1ccc(C)c(N2CCN(C(=O)CC3Sc4ccccc4NC3=O)CC2)c1 (centres undefined)	inconclusive: 7.94 µM [inhibitor, partial curve, poor fit]	
CCN(CC)C(=O)c1cc2sc3ccccc3c2s1	inconclusive: 28.2 µM [inhibitor, single point]	
CC1(C)Cc2cccc(C(=O)Nc3ccncc3)c2O1		inactive: -14.4%
Cc1ccc(CNc2nc3ccccc3n2C)cc1	inconclusive: 14.1 µM [inhibitor, single point]	
CC(C)(NC(=O)c1cc(Cl)c2ccccc2c1O)C(=O)O		inactive: -15.6%
c1ccc(OCCNc2ccn3nc(-c4cccs4)cc3n2)cc1	inconclusive: 12.6 µM [inhibitor, single point]	
CCN(CCNC(=O)c1ccc(CSc2nc3ccncc3[nH]2)cc1)c1ccccc1		inactive: 1.73%
CCn1c(=N)n(CCOc2ccc(OC)cc2)c2ccccc21	inconclusive: 14.1 µM [inhibitor, single point]	
CC(C)c1csc(CN2CCCC(CNC(=O)c3cccc4ccccc34)C2)n1 (centres undefined)	inconclusive: 28.2 µM [inhibitor, single point]	
CCOc1cccc(/C=N/NC(=S)NCCN2CCOCC2)c1O	inconclusive: 1 µM [inhibitor, full curve, poor fit]	

SMILES	Potency	activity change, negative = inhibition
O=C(CSc1nc2ccccc2n1CCc1ccccc1)c1ccc(O)c(O)c1	inconclusive: 31.6 µM [inhibitor, partial curve, poor fit]	
Cc1occc1-c1nnc(SCC(=O)Nc2ccc(F)cc2)n1Cc1ccccc1	inconclusive: 10 µM [inhibitor, partial curve, poor fit]	
NC(=O)c1ccccc1N/C=C/C(=O)c1cccs1	inconclusive: 28.2 µM [inhibitor, single point]	
CCc1ccc2oc(-c3ccc(N)cc3)nc2c1	inconclusive: 28.2 µM [inhibitor, single point]	
Cc1cc(C(=O)NCCN2CCN(c3cccc(Cl)c3)CC2)n(-c2ccccc2)n1	active: 6.31 µM	
Cc1ccc(S(=O)(=O)C(CNC(=O)Cc2ccc(Cl)cc2)c2cccs2)cc1 (centres undefined)	inconclusive: 11.2 µM [inhibitor, partial curve, poor fit]	
COc1cc2[nH]c(=S)nc(NCc3cccc(Cl)c3)c2cc1OC	inconclusive: 28.2 µM [inhibitor, single point]	
COc1cc(NC(=O)CN2C(=O)NC(C)(c3ccc4ccccc4c3)C2=O)c(C)cc1[N+](=O)[O-] (centres undefined)	inconclusive: 22.4 µM [inhibitor, single point]	
Cc1cccc2cc3c(N)c(C(=O)N4CCOCC4)sc3nc12	inconclusive: 2.24 µM [inhibitor, full curve]	
Cc1ccc(NC(=O)c2c(-c3c(F)cccc3Cl)noc2C)cc1F	active: 3.98 µM	
CC(C)=CCc1cc([C@@H]2COc3c(ccc4c3C=CC(C)(C)O4)C2)c(O)cc1O	inconclusive: 11.2 µM [inhibitor, partial curve, poor fit]	
Cc1cc2nc(SCCOC(=O)Nc3ccccc3)nc(C)c2cc1C	inconclusive: 28.2 µM [inhibitor, single point]	
CCOC(=O)Nc1ccc2c(c1)N(C(=O)N1CCN(C)CC1)c1ccccc1CC2	inconclusive: 11.2 µM [inhibitor, single point]	
Cc1c(C(=O)Nc2ccccn2)oc2ccc(Br)cc12		inactive: 7.51%
O=C(c1ccc(OC2CCN(CCc3ccccc3)CC2)cc1)N1CCCC1	inconclusive: 8.91 µM [inhibitor, partial curve, poor fit]	
CCN(CCCNC(=O)c1cc(Nc2ccc(OC)cc2OC)nc2ccccc12)c1cccc(C)c1	inconclusive: 17.8 µM [inhibitor, partial curve, poor fit]	
C=C(C)C(=O)Nc1cccc(C2=NOC3(C2)C[C@@H](C(N)=O)N(C(=O)CC(c2ccccc2)c2ccccc2)C3)c1 (some centres undefined)		inactive: -2.52%
COc1cc(/C=N/NC(=O)c2ccc(CN(C)S(=O)(=O)c3ccc(C)cc3)cc2)ccc1O	inconclusive: 4.47 µM [inhibitor, full curve, poor fit]	
CC(C)S(=O)(=O)c1oc(-c2cccs2)nc1S(=O)(=O)c1ccc(F)cc1	inconclusive: 12.6 µM [inhibitor, single point]	
Cc1ccc(NC(=O)c2c(C)oc3ccc(O)c(CN4CCCCCC4)c23)cc1		inactive: -29.3%
CCn1cc(C(=O)NCC(=O)OC)c2cc(OC)c(OC)cc2c1=O		inactive: 17.8%
Cc1c(CC(=O)NCCc2ccccc2F)c(=O)oc2cc(O)c(Cl)cc12		inactive: 12.4%

SMILES	Potency	activity change, negative = inhibition
CCOC(=O)CN1C(c2ccccc2O)Nc2ccc(Br)cc2C1c1ccccc1 (centres undefined)	inconclusive: 11.2 µM [inhibitor, single point]	
N=c1sccn1CC(=O)Nc1ccccc1Sc1ccccc1	inconclusive: 31.6 µM [inhibitor, single point]	
C[C@H](NC(=O)c1nc[nH]c1C(=O)NCC(=O)OCc1ccccc1)C(=O)OCc1ccccc1		inactive: -13%
COc1ccccc1CCNC(=O)C(=O)c1cn(CC(=O)N2CCCC2)c2ccccc12	inconclusive: 28.2 µM [inhibitor, single point]	
O=C(CSc1nnnn1-c1ccc(O)cc1)NC1CCCCC1	inconclusive: 1 µM [inhibitor, full curve, poor fit]	
CCCCN(CC)CCCNC(=O)C1CCCN(c2ncnc3c2nc2n3CCCCC2)C1 (centres undefined)		inactive: 0.0517%
O=C(CCNC(=O)c1ccccc1Cl)Nc1cccc(C(F)(F)F)c1	inconclusive: 12.6 µM [inhibitor, single point]	
CN(C)CCOc1ccc2c(c1)C(=O)C(=Cc1ncc([N+](=O)[O-])n1C)C2	inconclusive: 14.1 µM [inhibitor, partial curve, poor fit]	
Cc1ccc(NC(=O)NCCSc2ccc(C)cc2)cc1	inconclusive: 10 µM [inhibitor, partial curve, poor fit]	
Cc1ccc(OCCn2c(-c3ccc(Br)cc3)nc3ccccc3c2=O)cc1C		inactive: 6.57%
O=C(Nc1ccc(Cl)c(S(=O)(=O)N2CCOCC2)c1)c1ccc(Cl)nc1	inconclusive: 11.2 µM [inhibitor, single point]	
COc1cc2c(C#N)c(N3CCOCC3)nc(N)c2c(N)n1		inactive: 69.4%
COc1cc(S(=O)(=O)Nc2ccc(C)cc2)ccc1N=Cc1c(C)[nH]n(-c2ccccc2)c1=O	inconclusive: 17.8 µM [inhibitor, single point]	
CCN1C(=O)C(CC(=O)Nc2ccc(OC)cc2)N(Cc2ccc3c(c2)OCO3)C1=S (centres undefined)	inconclusive: 10 µM [inhibitor, partial curve, poor fit]	
COc1ccc2[nH]c(C)c(CCN(Cc3cccs3)C(=S)Nc3cccc(F)c3)c2c1	inconclusive: 10 µM [inhibitor, partial curve, poor fit]	
COc1ccc(C2NCCCC2c2ccccc2)cc1 (centres undefined)	inconclusive: 6.31 µM [inhibitor, partial curve, poor fit]	
CCN(CC)CCn1c(-c2ccccc2)csc1=Nc1ccccc1	inconclusive: 11.2 µM [inhibitor, partial curve, poor fit]	
COC(=O)C(C(=O)OC)C(C[N+](=O)[O-])c1ccc(O)c(OC)c1 (centres undefined)	inconclusive: 20 µM [inhibitor, single point]	
O=c1oc2ccccc2c(NC(c2ccccc2)c2ccccc2)c1[N+](=O)[O-]	inconclusive: 12.6 µM [inhibitor, single point]	
CN(C)C(CNS(=O)(=O)c1ccc2ccccc2c1)c1ccccc1 (centres undefined)	inconclusive: 20 µM [inhibitor, single point]	
